Here are results for three compounds from PubChem BioAssay AID2060613 (Molecular Pharmacology Branch, DTP, NCI, 2025).

For this assay, the system named is 233499-124-R-J3-PDC complex spheroid viability. Nature of the assay: Anticancer human tumor 233499-124-R-J3-PDC patient-derived colon adenocarcinoma cell line growth inhibition [CLK]. The following applies: for viability, T/C: stronger effect = lower value. An excerpt: A high-throughput screen of multi-cell type tumor spheroids was designed to identify active combinations of […] and targeted small molecules. Complex spheroids include a stromal component modeled by human endothelial cells (HUVEC) and fibroblasts modeled by human mesenchymal stem cells (MSCs). The concentration ranges selected for each drug and investigational agent were based upon clinically achievable concentrations if the clinical Cmax of the agent was known.
Compounds. The drugs and investigational agents: cirtuvivint (SM08502; NSC835563), CC-671 (NSC850746), vemurafenib (NSC761431), tapotoclax (NSC804041), sotorasib (NSC818433), adagrasib (NSC831453), MRTX-1133 (NSC836407), BAY2416964 (NSC825713), copanlisib (NSC816437), inavolisib (NSC800729), abemaciclib (NSC768073), osimertinib (NSC779217), entinostat (NSC756642), eltanexor (KPT-8602, NSC794443), venetoclax (NSC766270), ceralasertib (NSC777638), bortezomib (NSC756655), olaparib (NSC753686), talazoparib (NSC767125), alisertib (NSC759677), peposertib (NSC802822), gemcitabine (NSC613327), 5-fluorouracil (NSC19893), SN-38 (NSC673596), oxaliplatin (NSC266046), paclitaxel (NSC125973), and doxorubicin (NSC123127), were obtained from the National Cancer Institute (NCI) Developmental Therapeutics Program Chemical Repository. The FDA-approved anticancer drug set is available from the Developmental Therapeutics Program at https://dtp.cancer.gov/organization/dscb/obtaining/available plates.htm. […] The stock solutions were prepared in dimethyl sulfoxide (DMSO, Sigma-Aldrich, St. Louis, MO, cat. D2650), except for the platinum complexes which were prepared in saline (Quality Biological, Gaithersburg, MD, cat. 114-055-101), at 800-fold the tested concentration and stored at -70 degrees C prior to their use. All drugs and investigational agents were tested over a range starting from a high concentration at or near the clinical Cmax and decreasing in half-log increments. If the clinical Cmax for an agent had not been determined, the highest concentration tested was 10 microM.
Cell Culture. All cells were maintained in an incubator at 37 degrees C and 5% CO2 with 95% humidity. The PDC lines were cultured according to standard operating procedures established by the NCI PDMR. Briefly, all PDCs were thawed and cultured in Matrigel-coated flasks prepared with a working solution of 1X Ham's F-12 nutrient mix, without supplementation (Invitrogen, Waltham, MA, cat. 11765054), 100 U/mL penicillin-streptomycin (Invitrogen, cat. 15140122), and 2.5% Matrigel (Corning Inc., Corning, NY, cat. 354248) for the first three passages. The 947758-054-R-J2-PDC line was cultured in 6B/Colon 1A media, which includes advanced DMEM/F-12 (Thermo Fisher Scientific, cat. 12634028), 10 mM HEPES (Thermo Fisher Scientific, cat. 15630080), 1X GlutaMAX supplement (Thermo Fisher Scientific, cat. 35050061), 0.1 mg/mL primocin (InvivoGen, cat. ant-pm-2), 10% defined fetal bovine serum, heat inactivated (HyClone Laboratories Inc., cat. SH30070.03HI), 1.25 mM N-Acetyl-L-cysteine (Sigma-Aldrich, cat. A9165), 10 mM nicotinamide (Sigma-Aldrich, cat. N0636), 1X B-27 supplement (Thermo Fisher Scientific, cat. 17504044), 1X N-2 supplement (Thermo Fisher Scientific, cat. 17502048), and 10 microM Y-27632 dihydrochloride (Tocris Bioscience, cat. 1254). The 876862-298-R-J1-PDC was cultured in 6E media, which includes all 6B/Colon 1A media components plus 50% L-WRN conditioned media (ATCC, cat. CRL-3276), 50 ng/mL recombinant human EGF recombinant protein (hEGF; Thermo Fisher Scientific, cat. PHG0311), 10 ng/mL recombinant human fibroblast growth factor 10 (hGFG-10; PeproTech, cat. 100-26), 1 ng/mL recombinant human fibroblast growth factor 2 (hFGF-2; PeproTech, cat. 100-18B), and 1 µM prostaglandin E2 (PGE2; Tocris, cat. 2296). The 227483-062-R1-J1-PDC line was cultured in Panc media, containing all 6E components except hFGF-2, with the addition of 500 nM SB-431542 (Selleckchem, cat. S1067) and 10 nM gastrin (Tocris, cat. 3006). […]

For orientation: IC50 means the concentration that inhibits the measured activity by half. Broadly, the viability, T/C is the ratio of treated to control.

Some entries of the source have several records that differ or are many. The list is limited to them. The source may hold further records. Values given together are repeats in other runs, samples, wells, individuals or studies. Signs of the kind (2×) say how often a value occurs here. Dates in brackets are months of testing.
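Note: spheroids exposed to the drug combinations for seven days.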
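Throughout, for viability, T/C: percent viability relative to DMSO vehicle control wells taken as 100%.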

Take `CCc1c2c(nc3ccc(O)cc13)-c1cc3c(c(=O)n1C2)COC(=O)[C@]3(O)CC`: the IC50 (compound alone) was 789 nM [2023-07] and 29.4 nM [2023-08].
For the compound `CN1CCN(c2cc(C(=O)Nc3cc4cc(-c5cnn(C)c5)ccc4cn3)ccn2)CC1`, the viability, T/C by setting is: (compound alone 0.0316 µM) 111, 99.9, 92, 104, 101, 84.9, 96.8, 93.1, 92.1, 88, 80%; (compound alone 0.1 µM) 102, 99.4, 103, 94.5, 106, 87.1, 98.3, 91.8, 93, 90.7, 78%; (compound alone 0.316 µM) 99.7, 95.3, 87.4, 88.3, 88.7, 30.5, 95.7, 83.2, 91, 101, 89.7%.
For `CNC(=O)c1ccc(Nc2nc(OC3CCCC3)c3c(-c4ccc5nc(C)oc5c4)c[nH]c3n2)c(OC)c1`, the viability, T/C runs as follows: (compound alone 0.1 µM) 61.8, 68, 65.2, 66.7, 73.3, 83.3, 75.7, 69.1, 70.3, 65, 83, 55.6%; (compound alone 1 µM) 69.8, 62.5, 69, 74.2 (2×), 86.9, 81.2, 70.9, 73.1, 69.5, 88, 78.7%.
